This list was built around the results that the source calls inconclusive (neither active nor inactive); the mix of calls is not that of the screen. For some assays here: Potencies of inconclusive entries are left out as doubtful fits. Activity calls are given as the source filed them. Unless noted, calls come from the whole dose curve; as a rule, active = well fitted curve in the direction sought with a large enough effect; inconclusive = small, poorly fitted or top-dose-only effect, or another doubt; inactive = no such curve, though single readings can be large; an effect the other way counts as inactive or inconclusive.
What was measured:
[1] = target: Glucocorticoid receptor (Homo sapiens) (UniProt P04150); assay: qHTS assay for small molecule antagonists of glucocorticoid receptor signaling (AID 588533; active = well fitted inhibition curve with a large enough effect in the signal ratio, with a control signal flat, not every such curve was filed as active; inconclusive = small, poorly fitted or top-dose-only effect, or effect the other way, or a change in a side signal; the % refers to the signal ratio;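 note: cells stimulated with 2 nM dexamethasone as agonist; % is set by controls: 0 for no effect and ±100 for the full control effect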); conditions: HeLa MMTV-bla, GRE beta-lactamase ratio, antagonist mode, 18 h; activity change, negative = inhibition: at 76.8 µM (top of the series)
Sequence of UniProt P04150 (P04150 whole entry, looked up): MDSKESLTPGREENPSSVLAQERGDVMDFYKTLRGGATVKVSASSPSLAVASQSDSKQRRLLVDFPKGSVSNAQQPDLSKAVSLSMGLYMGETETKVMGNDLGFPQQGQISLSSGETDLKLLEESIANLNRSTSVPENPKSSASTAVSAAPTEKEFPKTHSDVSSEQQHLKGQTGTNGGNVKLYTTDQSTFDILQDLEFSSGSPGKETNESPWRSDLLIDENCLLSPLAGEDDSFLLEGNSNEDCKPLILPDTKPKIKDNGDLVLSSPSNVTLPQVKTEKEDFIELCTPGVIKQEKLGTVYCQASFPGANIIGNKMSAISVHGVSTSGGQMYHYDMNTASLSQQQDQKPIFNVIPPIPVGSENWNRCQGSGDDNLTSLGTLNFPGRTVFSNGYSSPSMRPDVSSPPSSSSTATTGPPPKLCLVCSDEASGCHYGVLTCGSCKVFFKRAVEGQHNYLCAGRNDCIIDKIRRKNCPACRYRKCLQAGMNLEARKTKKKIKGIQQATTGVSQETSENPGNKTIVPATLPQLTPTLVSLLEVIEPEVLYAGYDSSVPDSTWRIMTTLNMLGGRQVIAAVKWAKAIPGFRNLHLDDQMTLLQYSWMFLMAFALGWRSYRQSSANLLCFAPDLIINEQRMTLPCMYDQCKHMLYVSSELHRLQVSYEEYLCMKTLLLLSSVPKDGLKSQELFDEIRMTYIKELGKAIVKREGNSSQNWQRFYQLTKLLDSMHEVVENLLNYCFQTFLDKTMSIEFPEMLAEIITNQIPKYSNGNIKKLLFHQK

[2] = target: Peroxisome proliferator-activated receptor delta (Homo sapiens) (UniProt Q03181); assay: qHTS assay for small molecule agonists of peroxisome proliferator-activated receptor delta signaling (AID 588534; calls by dose curve;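 note: 0% = DMSO basal wells and 100% = positive control agonist at 10 µM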); conditions: HEK293T PPARdelta-UAS-bla, beta-lactamase ratio, 18 h; activation: at 76.7 µM (top of the series)
Sequence of UniProt Q03181 (Q03181 whole entry, looked up): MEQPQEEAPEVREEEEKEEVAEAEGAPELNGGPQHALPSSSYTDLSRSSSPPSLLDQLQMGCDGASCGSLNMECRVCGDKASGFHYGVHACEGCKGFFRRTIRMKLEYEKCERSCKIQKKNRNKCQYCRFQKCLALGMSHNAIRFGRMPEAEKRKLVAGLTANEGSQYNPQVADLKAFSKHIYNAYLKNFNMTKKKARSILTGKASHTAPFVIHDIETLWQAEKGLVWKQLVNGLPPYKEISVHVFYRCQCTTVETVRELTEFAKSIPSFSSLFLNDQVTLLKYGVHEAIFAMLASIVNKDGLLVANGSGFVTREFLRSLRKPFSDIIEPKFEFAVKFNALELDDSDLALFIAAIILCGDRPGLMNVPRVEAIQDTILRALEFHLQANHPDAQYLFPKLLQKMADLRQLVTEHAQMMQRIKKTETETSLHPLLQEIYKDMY
Procedure, shortened: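 Agonist-mode beta-lactamase reporter readout (CCF4 dye, 2 h at RT) after 18 h at 37 °C exposure to a titration; Hill-equation fitting gave EC50 and maximal response.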

[3] = qHTS of Nrf2 Activators: LOPAC Validation (AID 624149); conditions: Nrf2/ARE reporter cell assay; at 46.1 µM (top of the series); note: 0% is about no effect
Procedure, shortened: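 Luciferase signal from ARE activation, read with Steady-Glo after 30 min at room temperature. Compounds were pin-transferred onto AREc32_Fluc cells (1000/well, OPTI-MEM/5% FBS, seeded overnight) and left 24 hr at 37 deg C.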

[4] = Cell Viability - N2a (AID 540); conditions: N2a mouse neuroblastoma cell viability; activity change, negative = cytotoxicity: at 92.2 µM (top of the series);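 note: plate controls were DMSO alone for no effect and tamoxifen control for full effect; nearly all actives have a fitted effect of over 45% in size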
Procedure, shortened: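 CellTiter-Glo ATP luminescence, read 20 min after reagent at room temperature, reported viability following 40 h compound treatment at 37 °C. N2a mouse neuroblastoma cells seeded 1500/well; Hill equation gave AC50.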

[5] = Cell Viability - Mesenchymal (AID 546); conditions: mesenchymal cells viability, qHTS; at 91.7 µM (top of the series);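 note: cells exposed to compound for 40 hours before reading; 0% = DMSO only and -100% = 100 µM tamoxifen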
Procedure, shortened: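 Human renal mesenchymal cells (glomerulus-derived), 1000 cells/well, 5 hr 37 °C pre-incubation; compound 40 hr, 37 °C; CellTiter-Glo, 20 min RT; luminescence; AC50 via Hill equation.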

[6] = MultiTox-Fluor Cytotoxicity Assay - LYMP1-002 - Dead Cells (AID 960); conditions: LYMP1-002 lymphoblastoid cells, dead-cell protease fluorescence; cytotoxicity (dead cells): at 46.1 µM (top of the series); note: potency is the fitted concentration of half-maximal effect; nearly all actives have a fitted effect of over 60% in size
Procedure, shortened: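 Dead-cell fluorescence (Ex/Em 485/520) after 16 h compound exposure at 37 C of LYMP1-002 lymphoblastoid cells in complete medium; AC50 by Hill equation, with data scaled between DMSO and 15 uM tetraoctylammonium bromide.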

[7] = Cell Viability - LYMP1-003 - Assay at 24 hr (AID 963); conditions: LYMP1-003 lymphoblastoid cell viability; series mostly up to 92.2 µM;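 note: plate controls were DMSO only for no effect and tetraoctylammonium bromide positive control for full effect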
Procedure, shortened: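 Concentration-response qHTS: ATP loss measured by CellTiter-Glo luminescence after 24 h compound exposure at 37 C. Cells were LYMP1-003 human lymphoblastoid, 2500 per well. AC50 derived via standard Hill equation modeling.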

[8] = Cell Viability - LYMP2-005 (AID 967); conditions: LYMP2-005 lymphoblastoid cell viability; series mostly up to 92.2 µM; note: potency is the fitted concentration of half-maximal effect
Procedure, shortened: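 Luciferase-based ATP quantitation served as the viability measure in human lymphoblastoid LYMP2-005 cells exposed to test compounds for 24 h at 37 C in complete culture medium. Potency (AC50) was obtained by fitting concentration-response curves with the Hill equation.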

[9] = Cell Viability - LYMP2-019 (AID 973); conditions: LYMP2-019 lymphoblastoid cell line viability; series mostly up to 92.2 µM;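 note: 0% = DMSO alone and full effect = 92 µM tetraoctylammonium bromide; nearly all actives have a fitted effect of over 55% in size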
Procedure, shortened: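 AC50 values come from Hill-equation fits of luminescent intracellular ATP (CellTiter-Glo, 30 min, room temperature) following 24 h compound exposure at 37 C. Cells: LYMP2-019 lymphoblastoid line, 2500 per well, in complete culture medium.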

[10] = target: Bile acid receptor (Homo sapiens) (UniProt Q96RI1); assay: qHTS assay for small molecule antagonists of farnesoid X receptor signaling (AID 588526; calls by dose curve; note: % is set by controls: 0 for no effect and ±100 for the full control effect); conditions: HEK293T FXR-UAS-bla, beta-lactamase ratio, antagonist mode; activity change, negative = inhibition: at 76.7 µM (top of the series)
Sequence of UniProt Q96RI1 (Q96RI1 whole entry, looked up): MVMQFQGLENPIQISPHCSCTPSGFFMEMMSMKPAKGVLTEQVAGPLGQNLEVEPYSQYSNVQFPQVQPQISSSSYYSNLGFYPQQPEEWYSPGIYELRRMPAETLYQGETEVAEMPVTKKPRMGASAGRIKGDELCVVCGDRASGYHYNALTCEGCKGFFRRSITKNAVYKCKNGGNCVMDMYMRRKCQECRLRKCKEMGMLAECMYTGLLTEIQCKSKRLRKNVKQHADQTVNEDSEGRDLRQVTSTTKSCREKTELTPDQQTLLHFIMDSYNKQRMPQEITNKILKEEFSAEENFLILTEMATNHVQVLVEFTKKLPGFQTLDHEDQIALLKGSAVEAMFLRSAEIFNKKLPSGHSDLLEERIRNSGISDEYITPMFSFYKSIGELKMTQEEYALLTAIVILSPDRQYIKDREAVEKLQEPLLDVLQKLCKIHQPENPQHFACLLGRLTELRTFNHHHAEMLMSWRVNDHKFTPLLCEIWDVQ
Procedure, shortened: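 Antagonist mode: titrated compounds tested against chenodeoxycholic acid stimulation (normalized to 50 uM CDCA and DMSO) in GeneBLAzer HEK293T cells for 16 h. Beta-lactamase read by CCF4 fluorescence; IC50 from Hill fits.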

[11] = qHTS assay for small molecule disruptors of the mitochondrial membrane potential - 1 hr assay (AID 651754; calls by dose curve; note: potency is the fitted concentration of half-maximal effect; nearly all actives have a fitted effect of over 35% in size); conditions: ratio change, negative = depolarisation: at 92.2 µM (top of the series)
Procedure, shortened: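 Mitochondrial potential in living HepG2 cells after 1 hr compound treatment at 37C was read with Mito-MPS dye added for a further 30 min. Red aggregate and green monomer fluorescence were measured; loss of potential leaves dye as cytoplasmic monomers.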

[12] = target: Nuclear receptor ROR-gamma (Homo sapiens) (UniProt P51449); assay: qHTS assay for small molecule antagonists of the retinoid-related orphan receptor gamma (ROR-gamma) signaling pathway (AID 651802); conditions: ROR-gamma antagonist cell reporter assay; series mostly up to 92.2 µM; note: potency is the fitted concentration of half-maximal effect; nearly all actives have a fitted effect of over 60% in size
Sequence of UniProt P51449 (P51449 whole entry, looked up): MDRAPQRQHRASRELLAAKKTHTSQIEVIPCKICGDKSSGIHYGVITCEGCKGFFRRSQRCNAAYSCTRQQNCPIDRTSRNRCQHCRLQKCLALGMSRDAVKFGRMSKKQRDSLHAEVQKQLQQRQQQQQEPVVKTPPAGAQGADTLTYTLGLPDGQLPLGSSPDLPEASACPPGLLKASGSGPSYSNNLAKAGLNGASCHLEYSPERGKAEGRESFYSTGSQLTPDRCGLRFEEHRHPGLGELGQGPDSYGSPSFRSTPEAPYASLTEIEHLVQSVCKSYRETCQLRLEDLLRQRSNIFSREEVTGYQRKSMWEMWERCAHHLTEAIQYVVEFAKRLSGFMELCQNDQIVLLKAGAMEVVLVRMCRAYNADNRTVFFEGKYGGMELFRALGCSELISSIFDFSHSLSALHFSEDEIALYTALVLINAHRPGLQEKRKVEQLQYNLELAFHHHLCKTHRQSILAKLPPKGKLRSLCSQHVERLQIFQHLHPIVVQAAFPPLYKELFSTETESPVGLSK
Procedure, shortened: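 Luminescence (One-Glo, 30 min RT) measured 16 h after compound addition and doxycycline induction at 37C. Reporter: RORE-luciferase under TET-inducible ROR-gamma in CHO cells.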

[13] = qHTS of pediatric cancer cell lines to identify multiple opportunities for drug repurposing: Confirmatory screen for BT-37 cells (AID 1347117); conditions: BT-37 pediatric cancer cells, viability; series mostly up to 45.9 µM;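 note: potency is the fitted concentration of half-maximal effect; viability measured after 48 h of compound exposure; nearly all actives have a fitted effect of over 55% in size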
Procedure, shortened: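 Viability after 48 h compound treatment at 37C, 500-1,000 cells/well, read as ATP luminescence with CellTiter-Glo. Primary screens used 11-point (MIPE, 0.78 nM-46 µM) or 8-point (NPC, 0.59 nM-46 µM) final concentrations; follow-up screens used 11-point dilutions.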

[14] = target: Cytochrome P450 1A2 (Homo sapiens) (UniProt P05177); assay: p450-cyp1a2 (AID 410; calls by dose curve;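 note: top concentration of the series differs between compounds; -100% = full effect of reference inhibitor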); conditions: recombinant CYP1A2, luciferin-ME demethylation, luminescence; series mostly up to 57 µM
Sequence of UniProt P05177 (P05177 whole entry, looked up): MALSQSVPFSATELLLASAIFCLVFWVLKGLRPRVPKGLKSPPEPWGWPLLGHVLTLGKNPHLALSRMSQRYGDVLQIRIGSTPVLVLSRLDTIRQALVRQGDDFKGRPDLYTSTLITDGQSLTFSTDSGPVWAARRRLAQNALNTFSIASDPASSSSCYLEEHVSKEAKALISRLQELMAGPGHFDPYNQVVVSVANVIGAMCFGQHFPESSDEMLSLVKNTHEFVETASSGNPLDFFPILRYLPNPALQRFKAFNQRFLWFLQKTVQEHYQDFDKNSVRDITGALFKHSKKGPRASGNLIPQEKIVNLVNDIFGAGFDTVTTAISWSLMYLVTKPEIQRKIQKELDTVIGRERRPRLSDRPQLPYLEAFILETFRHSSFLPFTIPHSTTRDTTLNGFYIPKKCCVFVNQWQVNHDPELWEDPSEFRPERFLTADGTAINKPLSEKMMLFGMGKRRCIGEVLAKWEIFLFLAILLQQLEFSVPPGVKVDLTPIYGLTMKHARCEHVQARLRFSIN
Procedure, shortened: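 Luminescent demethylation readout: Luciferin-ME (100uM, equal to Km) turned over by 20nM CYP1A2 for 60 min at room temperature after NADPH regeneration addition, following 10 min compound preincubation. Normalization used 57 uM furafylline as full inhibition.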

[15] = target: Cytochrome P450 2C9 (Homo sapiens) (UniProt P11712); assay: qHTS Assay for Inhibitors and Substrates of Cytochrome P450 2C9 (AID 883); conditions: recombinant CYP2C9, luciferin-H luminescence, 60 min; series mostly up to 57.1 µM; note: % is set by controls: 0 for no effect and ±100 for the full control effect; nearly all actives have a fitted effect of over 60% in size
Sequence of UniProt P11712 (P11712 whole entry, looked up): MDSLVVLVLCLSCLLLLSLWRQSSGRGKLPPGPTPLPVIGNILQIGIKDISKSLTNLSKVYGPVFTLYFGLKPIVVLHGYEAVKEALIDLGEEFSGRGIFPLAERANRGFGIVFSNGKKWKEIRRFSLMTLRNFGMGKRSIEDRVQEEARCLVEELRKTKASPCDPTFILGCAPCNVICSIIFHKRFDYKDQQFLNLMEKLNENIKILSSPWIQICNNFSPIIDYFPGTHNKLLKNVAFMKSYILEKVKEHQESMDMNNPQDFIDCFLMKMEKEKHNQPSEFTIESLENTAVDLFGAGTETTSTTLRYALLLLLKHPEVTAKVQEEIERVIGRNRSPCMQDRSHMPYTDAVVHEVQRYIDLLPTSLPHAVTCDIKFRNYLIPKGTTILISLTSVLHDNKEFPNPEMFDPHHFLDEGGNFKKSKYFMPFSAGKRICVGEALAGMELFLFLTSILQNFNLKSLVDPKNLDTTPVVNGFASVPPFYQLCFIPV
Procedure, shortened: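 Human CYP2C9 (10nM) with Luciferin-H at 100uM (its KM) in 25mM KPO4; compound preincubated 10 min at 37C, then NADPH regeneration for 60 min at 37C. Luciferin read by luminescence after detection reagent; normalized to 57uM sulphaphenazole as full inhibition.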

[16] = target: N-terminal Xaa-Pro-Lys N-methyltransferase 1 (Homo sapiens) (UniProt Q9BV86); assay: qHTS Assay for Inhibitors of N-terminal methyltransferase 1 (NTMT1): LOPAC validation of the NTMT1 SAHH-coupled ThioGlo3 Assay (AID 1347143); conditions: recombinant NTMT1, SAHH-coupled ThioGlo3 fluorescence; series mostly up to 114 µM;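 note: SAH from peptide methylation measured as thiol fluorescence via SAHH coupling and ThioGlo3; % is set by controls: 0 for no effect and ±100 for the full control effect; nearly all actives have a fitted effect of over 70% in size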
Sequence of UniProt Q9BV86 (Q9BV86 whole entry, looked up): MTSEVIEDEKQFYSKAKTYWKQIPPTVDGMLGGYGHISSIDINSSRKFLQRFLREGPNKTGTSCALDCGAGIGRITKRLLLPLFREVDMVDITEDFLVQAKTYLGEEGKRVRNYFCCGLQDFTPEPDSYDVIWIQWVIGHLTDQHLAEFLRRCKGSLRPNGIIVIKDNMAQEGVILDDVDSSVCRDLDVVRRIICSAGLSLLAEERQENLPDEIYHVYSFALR
Procedure, shortened: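 Steps: dispense 125nM NTMT1; pin-transfer test compounds at several concentrations, with 1uM RCC1-6 peptide as control; incubate 1 min; start with reagent holding 100uM SAM, 10uM SAHH, 15uM ThioGlo3; read at 0 and 30 min.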

Papain (Carica papaya) = Papain (Carica papaya) (UniProt P00784); assay: Primary qHTS assay for inhibitors of the protease papain (AID 1645873); conditions: papain Z-FR-AMC cleavage, AMC fluorescence; series mostly up to 49.8 µM;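 note: papain turnover of Z-FR-AMC read as the AMC fluorescence gain over 10 min; % is set by controls: 0 for no effect and ±100 for the full control effect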
Sequence of UniProt P00784 (P00784 whole entry, looked up): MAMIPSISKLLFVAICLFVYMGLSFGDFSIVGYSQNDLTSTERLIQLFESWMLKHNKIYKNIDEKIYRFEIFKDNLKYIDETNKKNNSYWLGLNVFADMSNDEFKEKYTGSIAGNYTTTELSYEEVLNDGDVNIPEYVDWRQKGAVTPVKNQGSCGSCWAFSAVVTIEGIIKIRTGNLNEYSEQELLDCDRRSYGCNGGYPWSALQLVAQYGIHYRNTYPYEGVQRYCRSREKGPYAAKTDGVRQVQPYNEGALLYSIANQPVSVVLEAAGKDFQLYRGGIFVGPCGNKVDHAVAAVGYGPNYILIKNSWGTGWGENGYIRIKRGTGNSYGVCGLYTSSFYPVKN

[17] = target: Luciferin 4-monooxygenase (Photinus pyralis) (UniProt P08659); assay: Primary firefly luciferase (FLuc) qHTS assay for identification of artifact compounds. (AID 1845220); conditions: purified firefly luciferase, luminescence, 5 min; series mostly up to 54.1 µM; note: potency is the fitted concentration of half-maximal effect; nearly all actives have a fitted effect of over 60% in size
Procedure, shortened: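 D-luciferin and ATP (10 uM each, final) in Tris acetate buffer pH 7.6 were incubated with compounds for 15 min at room temperature. The reaction was started with 10 nM Photinus pyralis luciferase and luminescence read after 5 min. Percent inhibition was fitted to a 4-parameter Hill equation.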

[18] = NCATS anti-infectives library activity on HEK293 viability as a counter-qHTS vs the C. elegans viability qHTS (AID 1745854); conditions: HEK293 viability counter-screen; series mostly up to 41.8 µM; note: % is set by controls: 0 for no effect and ±100 for the full control effect
Procedure, shortened: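 Cytotoxicity counter-screen to a worm viability qHTS: CellTiter-Glo luminescence read 10 min after reagent addition. Compounds (final up to 41.7 uM, a 1:5 dilution series) incubated 24 hr at 37C with 1,500 HEK293 cells per well; digitonin control.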

[19] = NCATS anti-infectives library activity on the primary C. elegans qHTS viability assay (AID 1745855; calls by dose curve; note: potency is the fitted concentration of half-maximal effect); conditions: C. elegans worm area imaging, day 7; series mostly up to 41.8 µM
Procedure, shortened: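 GFP read-out by 488 nm laser cytometry at day 0, 3 and 7, gated on object perimeter, area and peak intensity, scored viability of PE254-GFP-FLuc worms exposed to compound in S medium with bacterial capsules at 21 °C.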
Tags give direction and shape of the fitted curve.

## CC(C)(Oc1ccc(CCNC(=O)c2ccc(Cl)cc2)cc1)C(=O)O
[1]
  Potency: inactive
[2]
  activation: inconclusive: 23.9%
[3]
  activation: inactive: -2.11%

## O=C1c2c(O)cccc2Cc2cccc(O)c21
[4]
  activity change, negative = cytotoxicity: inconclusive: -32.7%
[5]
  activity change, negative = cytotoxicity: inconclusive: 33.1%
[6]
  Potency: inconclusive [cytotoxic, full curve]
[7]
  Potency: inactive
[8]
  Potency: inconclusive [cytotoxic, full curve, poor fit]
[9]
  Potency: inactive
[10]
  Potency: inactive
[11]
  Potency: inconclusive [inhibitor, partial curve, poor fit]
[12]
  Potency: inconclusive [inhibitor, partial curve, poor fit]

## O=C(Oc1cccc2cccnc12)c1ccccc1
[13]
  Potency: active: 20.8 µM

## C[C@@H]1CCC[C@H](C)N1
[14]
  Potency: inactive
[15]
  Potency: inactive

## O=C(Nc1ccc2c(c1)CCN(Cc1ncn[nH]1)C2)c1ccccc1-c1ccc(C(F)(F)F)cc1
[16]
  Potency: inactive
Papain (Carica papaya)
  Potency: inactive

## CCOC(=O)c1csc(Nc2ccc(Cl)cc2)n1
[17]
  Potency: inconclusive [inhibitor, single point]

## O=C(N/N=C/c1ccc(O)c(O)c1)c1cc2ccccc2cc1O
[18]
  Potency: inactive
[19]
  Potency: active: 20.5 µM

From PubChem BioAssay (NCATS)
